In all, about 52,000 compounds went through this assay and about 1,700 (3.3%) were called active. Rule as the data show it: active = survival mostly below about 52% (no sharp cut-off); inactive = mostly above about 56%. The list shows a part of the results.
test system: Wild type; test: S. aureus survival, RN4220 and DeltatarO strains – OD600, teichoic acid synthesis inhibitors, primary screen (AID 463173); conditions: S. aureus RN4220 wild type/DeltatarO growth, OD600, 18 h, stronger effect = lower value, screened at 18.75 µg/mL (by protocol)

SMILES | survival
CCOC(=O)c1cc(NC(=O)c2ccc(C)cc2)c(=O)n2c1oc1ccc(Cl)cc12 | inactive: 77%
CN(C(=O)C1=CC(c2ccc3c(c2)OCO3)=NS(=O)(=O)N1C)c1ccccc1 | inactive: 89%
CCCC(=O)Nc1nnc2n1CCS2 | inactive: 81%
O=C(CSc1nc2c(c(=O)[nH]1)CN(Cc1ccc3c(c1)OCO3)CC2)Nc1cccc(Cl)c1 | inactive: 75%
Cc1nc2c(c(C)nn2-c2ccccc2)c(C)c1CCC(=O)NCCc1ccccc1 | inactive: 91%
Cn1nnc2c(NCc3ccccc3Cl)ncnc21 | inactive: 118%
CCOC(=O)c1noc2ncnc(N3CCC(C)CC3)c12 | inactive: 70%
CCOc1ccc(Oc2nc(NC)nc(N3CCOCC3)n2)nn1 | inactive: 101%
COc1ccc(CC(=O)NCc2nc3cccnc3n2Cc2ccc(C)cc2)cc1OC | inactive: 71%
Cc1cccc(Cn2cc3c(=O)n(CC(=O)Nc4ccc(C)c(F)c4)nc-3c3cc(F)ccc32)c1 | inactive: 64%
COc1ccc(S(=O)(=O)N(Cc2ccccc2)Cc2nc3ccccc3c(=O)[nH]2)cc1 | inactive: 113%
COc1cc2nc(C3CCC3)n(NC(=O)C(OC(C)=O)c3ccccc3)c(=O)c2cc1OC (centres undefined) | inactive: 103%
CC(C)N(C(=O)Cn1c(SCC(=O)N2CCOCC2)nc2ccccc21)C(C)C | inactive: 93%
COCCN1C(=O)c2[nH]nc(-c3cc(C)ccc3O)c2C1c1ccc(C(C)C)cc1 (centres undefined) | active: 11%
CCc1ccccc1NC(=O)c1cc(S(=O)(=O)N2CCCC2)cn1C | inactive: 84%
Cc1cccc(N2CCN(C(=O)CCc3c(C)nc4ncnn4c3C)CC2)c1C | inactive: 76%
Cc1ccc(Cn2c(=O)n(CCCC(=O)NCc3ccccc3Cl)c(=O)c3ccccc32)cc1 | inactive: 145%
COc1ccc(OC)c(NC(=O)c2c(NCc3cccs3)sc3c2CCCC3)c1 | inactive: 95%
COC(=O)c1cnc(N2CCN(c3ccccc3F)CC2)c2ccccc12 | inactive: 93%
Cc1ccc(NC(=O)C2CCN(c3nc4ccccc4[nH]3)CC2)c(C)c1 | inactive: 101%
COc1ccc(C(=O)N(CC(=O)NC2CCCC2)C2CCCCC2)cc1OC | inactive: 106%
O=C(Cc1ccccc1)Nc1cccc(-c2cn3cccnc3n2)c1 | inactive: 77%

SMILES | survival
COc1ccccc1NC(=O)NCCN1CCN(c2cccc(Cl)c2)CC1 | inactive: 90%
CC(C)c1cccc(C(C)C)c1NC1=NS(=O)(=O)c2ccccc21 | inactive: 66%
COc1cccc(CN(CCCN2CCOCC2)C(=O)c2cc3sccc3n2Cc2ccccc2)c1 | inactive: 133%
O=C(Cn1c(-c2cccs2)cc2ccccc21)NCCc1ccc(Cl)cc1 | inactive: 124%
CCOc1ccc(S(=O)(=O)Nc2ccc3c(c2)N(C(C)=O)CCC3)cc1 | inactive: 71%
COC(=O)C(C)Sc1ncnc2c1c(-c1ccccc1)cn2-c1ccc(F)cc1 (centres undefined) | inactive: 89%
Cc1cccc(C)c1-n1ncc(C(=O)N2CCN(c3ccccc3)CC2)c1C1CCN(C(=O)OC(C)(C)C)CC1 | inactive: 83%
Cc1ccc(CNS(=O)(=O)c2cc3c(cc2C)NC(=O)CO3)cc1 | inactive: 83%
N#CC(Cc1cccnc1)C(=O)Nc1ccccc1 (centres undefined) | inactive: 110%
CN(CC(=O)Nc1cccc(C(F)(F)F)c1)S(=O)(=O)c1cccs1 | inactive: 93%
O=C(c1ccc(CSc2nc3ccncc3n2Cc2cccc(F)c2)cc1)N1CCCCCC1 | inactive: 75%
Cc1cncn1CCc1nc2c3ccccc3nc(SCC(=O)Nc3cccc(Cl)c3)n2n1 | inactive: 80%
COc1ccc2c(c1)C(c1ccc(N3CCOCC3)cc1)=NNC(c1cccnc1)=N2 | inactive: 110%
CCOc1ccccc1NC(=O)c1cc2c(=O)oc3ccccc3c2s1 | inactive: 99%
CCC(Cn1nnc2ccccc2c1=O)NC(=O)Nc1ccc(C)c(C)c1 (centres undefined) | inactive: 90%
Cc1ccc(/C=C/c2nc3ccccc3[nH]2)cc1 | inactive: 60%
CCc1ccc(NC(=O)CCS(=O)(=O)c2ccc3c(c2)n(C)c(=O)c(=O)n3C)cc1 | inactive: 81%
CC(C)COc1ccc(C(=O)N(Cc2ccc(N(C)C)cc2)Cc2ccco2)cc1 | inactive: 80%
CC1CCCCN1c1nnc(NC(=O)Nc2ccccc2F)s1 (centres undefined) | inactive: 71%
CS(=O)(=O)CCC(C(=O)Nc1cccc(C(F)(F)F)c1)N1Cc2ccccc2C1=O (centres undefined) | active: -1%
CC1CCCN(C(=O)c2cc3c(Cl)nc4ccccc4c3s2)C1 (centres undefined) | active: -2%
O=C(c1ccco1)c1cn(CCOc2ccc(F)cc2)c2ccccc12 | inactive: 57%

Source: PubChem BioAssay AID463173 (ICCB-Longwood Screening Facility, Harvard Medical School, 2010)
